According to the supplement of paper PMC12632987:
Whole data set: some 1,800 sequences, median “median log2 fold change of GCK-ALFA target abundance (FLAG IP / Myc IP barcode read proportion)” near 0.14, cut for the lowest 2% near -0.84. The list shows a part of the results.

T1: TRAF2, Q12933
T1 chain: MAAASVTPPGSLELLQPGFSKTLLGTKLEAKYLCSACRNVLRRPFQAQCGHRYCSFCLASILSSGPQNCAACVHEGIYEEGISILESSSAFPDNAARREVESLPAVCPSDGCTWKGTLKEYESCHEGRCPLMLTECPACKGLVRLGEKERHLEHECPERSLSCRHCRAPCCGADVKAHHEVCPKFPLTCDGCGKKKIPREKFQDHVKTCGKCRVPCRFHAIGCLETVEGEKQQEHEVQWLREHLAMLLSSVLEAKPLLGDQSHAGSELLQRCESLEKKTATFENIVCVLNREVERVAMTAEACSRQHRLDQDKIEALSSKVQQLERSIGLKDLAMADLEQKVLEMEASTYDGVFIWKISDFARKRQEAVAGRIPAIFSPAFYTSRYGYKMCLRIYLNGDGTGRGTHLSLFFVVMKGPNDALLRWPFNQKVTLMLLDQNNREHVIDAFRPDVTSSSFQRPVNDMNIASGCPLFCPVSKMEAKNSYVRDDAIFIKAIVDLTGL

B1: traf2_out_16_171_1433 (protein)
chain: SAAAREAALRAEIAADAERLKERMETMVEMTPLISKETGLSVEQIAKGFRSTMTDRLEALRAHYRALAADLSPEVHAFIDERFAEVEEALEKAVAEILAK
B2: traf2_out_11_155_679 (protein)
chain: EKKKELNNELVDKTTEIADKAKAEGKAIADEAAAAHPEHAAEIRAVLEAAAPYSYRTFLGEAARTFERLGLEEAAARLKALLEKAQKEMNKIVKEIEAKL
B3: traf2_out_18_3_1920 (protein)
chain: KEEELKKISDEIDKVVDETTEKAKEWLEKAKKEIPEYKEEVEELEKLLESGAGPFGILDELAELWEKAGKEEEAAEIKKFKKEQRKKLQKLVDEYEKLIK
B4: traf2_out_5_189_2328 (protein)
chain: SEKEEEEKKLTEKAKKLAKKARELLAELEAKGASHEEIKAALLEELKKLSIEDARLYAGIMYAILLNRAWVKNDKALEAAAKEFRKEALALIEKREKEAA
B5: traf2_out_11_155_740 (protein)
chain: EKKLELNQKMNDEIMDLFDEARKKADEIVERAAKEHPEHKEELEALKEKTKGFSYRSYILSYIELFKELGLEEEAEELEKLLEETQKKANEIVKKTEKEL
B6: traf2_out_11_155_670 (protein)
chain: SEKQKLNNELVNELTEIADELKEKVEKILKEAAAAHPEHAEELAAVIASGKTLSGRSFARLAAQKFRELGLEEEAKKVEELLEEAQKKMNEVVKKYEEKL
B7: traf2_out_20_3_2163 (protein)
chain: EELEKEAEKELEKAIELLKKAAELSDPETAKRLEKLIKRLKASRKLSPSDRLVVVSEVRREVLRLAEEARAAGKEELAKLLEEAADALNRLAQLLYKIIE
B8: traf2_out_11_169_866 (protein)
chain: EEKEKNRKLIDFALEVEDEAKKKLKEFALALAKEYGLDVEEVKKIFEENKNSSLSAIASALIKYFKSKGKEEAAEEVLKKHEELKEEINKKVSEFIKELE
B9: traf2_out_11_169_785 (protein)
chain: EEAEKNRKFNDFALEKEDEAKEKLKKFALKLAKEAGLDVAEVEKIFEDNKGKSLSAIAAALVAYFTAKGKEDAAAKVLEKYEELKEEINKAGSEFMKELE
B10: traf2_out_14_149_1258 (protein)
chain: SATAAKKAALERAAAIFREIADTLAAALAAGSTDVDLAALRAKVDEARAILKAQGFVLGSLLQLEELLAATTTATPATLERLLALARRAAESAEVLAEML
B11: traf2_out_13_95_1100 (protein)
chain: SRELAEKIMEIADKMLEESEEILEELLKKAKEKGVAEEEIQEALYLARTRSINEAIHLLKELSKKYPELKEELDEAIEKLEELKREAGRKVAELIKEEEE
B12: traf2_out_13_95_1083 (protein)
chain: SAEANERIMEIADRMLEEVDRILEELAKKVADDPEMKAAVEEALHLARTHGINAAIHLLEELAKANPEYKELLDAAIEELRRIKREAGRRVAEILREEEE
B13: traf2_out_15_180_1331 (protein)
chain: MTEEELEKRIKLASEVADKVQDRLDELLAANPELSPEERAALRALARSLLTLLLAGEWEEAEAALAAAEARVSPRAAAVARELYEFIKEEVEKAKKELEA
B14: traf2_out_18_3_1906 (protein)
chain: LEEKRKKLSDEIDKIVDEAEAYAREVLDELAARHPEVAAELARLRAVLDAGGGAFGVLEALAELARRLGEEELAARIEEFIREKRKEMQELVDEYEKLIK
B15: traf2_out_17_162_1569 (protein)
chain: EELERRLRELRERLRELEERLREFEEEEKEFPKMSYEELTDRLVEVSELRREARELAEELRRLGEELGEEELRELVERAEEIAERLNRIANKIYKEIEKK
B16: traf2_out_18_117_1783 (protein)
chain: SEREKIIKELKKIAEETGKAASRLGKLMEENWEKLTPEQKSEAMDVLADLSEVRREALLLIHKIETENIPVEEAKKELEKLKKKAEEALKKAEEVIKKIE
B17: traf2_out_3_89_2298 (protein)
chain: SPEQAARLAEARARMDAYLRGFEKSARRVAREMVADGASLETLRGVLEAARTALLEVLRESAEEAGLSPEDIAALVAEAERRLTEIVERIVAEAEAERAA
B18: traf2_out_16_104_1387 (protein)
chain: SAATQAQFDAIIAQLQAIADRANKLANELYKLYLKASPEKKKEISDALVEVSEIKREARQAALAAQAARAAGGDPAAAQATLAKLQERLEKAEKELKELK
B19: traf2_out_20_3_2160 (protein)
chain: SELEKKMEEEREKAIELLEKAAELADEETAKKLKELKKKVEESKELSYDDQLVVLSEVRREVRELAEEAREEGKEELAKVLEEAAEALNRAMNLAYKIIQ

Target: T1, TRAF2, Q12933
Assay: median log2 fold change of GCK-ALFA target abundance (FLAG IP / Myc IP barcode read proportion) (log2 ratio); each designed protein is fused to an ALFA-tag nanobody in HEK293 cells to bring the named protein to FLAG-tagged glucokinase (GCK); Myc marks an untargeted standard; higher = target protein stabilised (more abundant)
Conditions: target protein: 3xFLAG-MCP-GCK-ALFA reporter; HEK293 landing pad (RPLP)
Summary of the method: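 An ALFA-nanobody-fused binder library was recombined into HEK293 landing-pad cells and induced with 2 μg mL^−1 doxycycline. Cells were transfected with a plasmid expressing a FLAG-tagged target and a Myc-tagged standard. After 48 h, lysates underwent anti-FLAG and anti-Myc immunoprecipitation, and circular RNA barcodes were reverse transcribed, amplified and sequenced. Target abundance is the per-binder median log2 ratio of FLAG to Myc barcode read proportions. Barcodes needed ≥10^−7 proportion in both replicates, binders ≥3 barcodes per replicate, and a 10^−6 pseudocount was added; the two replicates were pooled.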

Row | Binder | median log2 fold change
1 | B1 | -0.108
2 | B2 | 0.0935
3 | B3 | -0.0516
4 | B4 | -0.177
5 | B5 | 0.142
6 | B6 | 0.263
7 | B7 | 0.302
8 | B8 | 0.473
9 | B9 | 0.0519
10 | B10 | 0.341
11 | B11 | -0.367
12 | B12 | -0.117
13 | B13 | 0.153
14 | B14 | 0.00452
15 | B15 | 0.176
16 | B16 | 0.183
17 | B17 | -0.699
18 | B18 | 0.0322
19 | B19 | 0.184
